Results reported in the RNAGym collection of RNA variant scans (doi:10.7554/elife.90254).
Read counts are not given, so values of variants with three or more changes are uncertain.

B1: LINE1-mini (parent)
chain: GGCAGAGCUCAACACAGCGUGGCAAAGUGGCUGUGGCUAGACUGCC

Variants of: B1
Experiment: self-cleavage, relative activity (ratio to wild type); higher = more cleavage; in vitro, sequencing; the parent is a self-cleaving ribozyme
With GGCAGAGCUCAACAGACCGUGGCAAAGUGGCUGUGUCUAGACCGCC [C15G G17C G36U U43C] the self-cleavage was 0.01.
For GGCAGAGCUCAACAGAUCGUCGCAAAGUGAAUGUGGCUAGACUGCC [C15G G17U G21C G30A C31A], the self-cleavage was 0.06.
With GGCAGAGCUCAACAGAGCAUGGCAUAGUGGCUCUGGCUAGACUGCC [C15G G19A A25U G33C] the self-cleavage was 0.36.
Work on GGCAGAGCUCAACAGAGCAUGGCAAGGUUGCUGUGGCUAGACUGCC [C15G G19A A26G G29U] yielded a self-cleavage of 0.12.
For GGCAGAGCUCAACAGAGCAUGGCAAAGUGGCUGUCGCCAGACUGCC [C15G G19A G35C U38C], the self-cleavage was 0.01.
GGCAGAGCUCAACAGAGCAUGGCAAAGUGGCAGUGGCUAGAGUGCC [C15G G19A U32A C42G] gave a self-cleavage of 0.02.
GGCAGAGCUCAACAGAGCUUGGCACAGUGGCUGUGGCGAGACUGCC [C15G G19U A25C U38G] showed a self-cleavage of 0.
GGCAGAGCUCAACAGAGCUUGGCAAAGUUGCUGUGGCUAGACUGCC [C15G G19U G29U] showed a self-cleavage of 0.02.
With GGCAGAGCUCAACAGAGCUCGUCAAAGUGGCUGUGGCUAGGGUGCC [C15G G19U U20C G22U A41G C42G] the self-cleavage was 0.
With GGCAGAGCUCAACAGAGCGUAGCAAAGAGGCUGUGGCUAGACUGCG [C15G G21A U28A C46G] the self-cleavage was 0.02.
GGCAGAGCUCAACAGAGCGUCGCACAGUGGCUGUGUCUAGACUGGC [C15G G21C A25C G36U C45G] showed a self-cleavage of 0.01.
GGCAGAGCUCAACAGAGCGUUGCGAAGGGACUUUGGCUAGACUGCC [C15G G21U A24G U28G G30A G33U] gave a self-cleavage of 0.02.
Variant GGCAGAGCUCAACAGAGCGUGACAAAGGGGCCGUGGCUAGACUGCC [C15G G22A U28G U32C] has a self-cleavage of 0.01.
Variant GGCAGAGCUCAACAGAGCGUGUCAAAGUGACUGUGGCUAGACUGCC [C15G G22U G30A] has a self-cleavage of 0.01.
For GGCAGAGCUCAACAGAGCGUGUCAAAGUGCCUGUGGCUAGACUGCC [C15G G22U G30C], the self-cleavage was 0.02.
Work on GGCAGAGCUCAACAGAGCGUGUCAAAGUGGCUGUUGCUAGACUGCC [C15G G22U G35U] yielded a self-cleavage of 0.06.
For GGCAGAGCUCAACAGAGCGUGGCAAAAUGGCUGUGGUUAUACUGCU [C15G G27A C37U G40U C46U], the self-cleavage was 0.02.
With GGCAGAGCUCAACAGAGCGUGGCAAAAUGGCUGUGGCUAGACUGCA [C15G G27A C46A] the self-cleavage was 0.04.
Work on GGCAGAGCUCAACAGAGCGUGGCAAAAUGGCUUUGGUUAGACUGCC [C15G G27A G33U C37U] yielded a self-cleavage of 0.03.
Work on GGCAGAGCUCAACAGAGCGUGGCAAAGUGACAGUGGCUAGACUGCC [C15G G30A U32A] yielded a self-cleavage of 0.02.
Work on GGCAGAGCUCAACAGAGCGUGGCAAAGUGGCUAUAGCUAGACUGGC [C15G G33A G35A C45G] yielded a self-cleavage of 0.02.
Work on GGCAGAGCUCAACAGAGCGUGGCAAAGUGGCUAUGGCUAAACUGCC [C15G G33A G40A] yielded a self-cleavage of 0.03.
Variant GGCAGAGCUCAACAGAGCGUGGCAAAGUGGCUCUGACUAGACUGGC [C15G G33C G36A C45G] has a self-cleavage of 0.05.
Work on GGCAGAGCUCAACAGAGCGAGGCAAGGUGGCUGUGGUUAGAUUGCC [C15G U20A A26G C37U C42U] yielded a self-cleavage of 0.01.
With GGCAGAGCUCAACAGAGCGGGGCAAAGUGGUUGUGGCUGGACUGCC [C15G U20G C31U A39G] the self-cleavage was 0.02.
GGCAGAGCUCAACAGAGCGUGGCAAAGGUGCUGUGGCUAGACUGUC [C15G U28G G29U C45U] showed a self-cleavage of 0.01.
Variant GGCAGAGCUCAACAGAGCGUGGCAAAGUGGCUGUGGCAAUACUGCC [C15G U38A G40U] has a self-cleavage of 0.01.
Variant GGCAGAGCUCAACAUCGCGGGGCAAAAAGGCUGUGGCUACACUGCC [C15U A16C U20G G27A U28A G40C] has a self-cleavage of 0.04.
In the case of GGCAGAGCUCAACAUGGCGUUGCGUAGUCGCUGUGGCUAGACUGCC [C15U A16G G21U A24G A25U G29C], the self-cleavage is reported as 2.02.
For GGCAGAGCUCAACAUAGCGUGGCCACGUGGCUGUGACUAGCCUGCC [C15U A24C A26C G36A A41C], the self-cleavage was 0.07.
GGCAGAGCUCAACAUAGCGUGGCACAGUGGCUGUGGCAAGACUGCA [C15U A25C U38A C46A] gave a self-cleavage of 0.09.
With GGCAGAGCUCAACAUAGCGUGGCAGAGUGGGUGUGGGAAGAAUGCC [C15U A25G C31G C37G U38A C42A] the self-cleavage was 0.03.
Variant GGCAGAGCUCAACAUAGCGUGGCAGAUUGGCUGUGGCUAGACUGCC [C15U A25G G27U] has a self-cleavage of 0.1.
With GGCAGAGCUCAACAUAGCGUGGCAGAGUGGCUGUGGCUAAACUGCC [C15U A25G G40A] the self-cleavage was 0.04.
GGCAGAGCUCAACAUAGCGUGGCAGAGUGGCUGUGGCUAGACUUCC [C15U A25G G44U] gave a self-cleavage of 0.02.
With GGCAGAGCUCAACAUAGCGUGGCAUUGCGGUUGUGGCUAGACUGCC [C15U A25U A26U U28C C31U] the self-cleavage was 0.04.
In the case of GGCAGAGCUCAACAUAGCGUGGCAUAGUGGCUGUGGCUAGACUGCG [C15U A25U C46G], the self-cleavage is reported as 0.19.
GGCAGAGCUCAACAUAGCGUGGCAACGUGGCUGUGGCUAGCCUGCC [C15U A26C A41C] gave a self-cleavage of 0.06.
With GGCAGAGCUCAACAUAGAGUGGCAAAGUGGAUGUCCCUAGACUGCC [C15U C18A C31A G35C G36C] the self-cleavage was 0.02.
Work on GGCAGAGCUCAACAUAGGGUGGCAAGGUGGCUGUGUAUCGACUGCC [C15U C18G A26G G36U C37A A39C] yielded a self-cleavage of 0.01.
Variant GGCAGAGCUCAACAUAGCGUGGAACAGUGGCUGUGGCUAGACUGCC [C15U C23A A25C] has a self-cleavage of 0.25.
For GGCAGAGCUCAACAUAGCGUGGAAAAGUGGCUGUGGCUAGACUGCG [C15U C23A C46G], the self-cleavage was 0.97.
In the case of GGCAGAGCUCAACAUAGCGUGGAAAAGUGGCUGUAGCUAGACUGCC [C15U C23A G35A], the self-cleavage is reported as 0.11.
Work on GGCAGAGCUCAACAUAGCGUGGAAAAGAGGCUGUGGCUAGACUGGC [C15U C23A U28A C45G] yielded a self-cleavage of 0.21.
Variant GGCAGAGCUCAACAUAGCGUGGGAAAGUGUCUGUGGCUAUACUGCC [C15U C23G G30U G40U] has a self-cleavage of 0.04.
Variant GGCAGAGCUCAACAUAGCGUGGGAAAGUGGCUGUGGCCAGACUGCC [C15U C23G U38C] has a self-cleavage of 2.04.
Work on GGCAGAGCUCAACAUAGCGUGGUAAAGUGUCAGUGGCUAGACUGCC [C15U C23U G30U U32A] yielded a self-cleavage of 0.04.
GGCAGAGCUCAACAUAGCGUGGUAAAGUGGCUGUGGCAAGACUCCC [C15U C23U U38A G44C] gave a self-cleavage of 0.51.
GGCAGAGCUCAACAUAGCGUGGCAAAGUGGUUGUGGCUAGACUGCA [C15U C31U C46A] showed a self-cleavage of 0.02.
For GGCAGAGCUCAACAUAGCGUGGCAAAGUGGUUGUGUCCAGGCUGCC [C15U C31U G36U U38C A41G], the self-cleavage was 0.02.
GGCAGAGCUCAACAUAGCGUGGCAAAGUGGCUGUGGCUAGAUUGAC [C15U C42U C45A] showed a self-cleavage of 0.02.
GGCAGAGCUCAACAUAGCGUGGCAAAGUGGCUGUGGCUAGAUUGCG [C15U C42U C46G] showed a self-cleavage of 0.05.
With GGCAGAGCUCAACAUAACGUGGGUAAGUGUCUGUGGCUAGGCUGCC [C15U G17A C23G A24U G30U A41G] the self-cleavage was 0.04.
Variant GGCAGAGCUCAACAUAACGUGGCAAAGUUGCUGUGGCUAGACUGCC [C15U G17A G29U] has a self-cleavage of 0.05.
Work on GGCAGAGCUCAACAUAACGAGGCAAAGUGGCUGUGGCUAGACUGCC [C15U G17A U20A] yielded a self-cleavage of 0.03.
Variant GGCAGAGCUCAACAUAACGUGGCAAAGGGACUGUGGCUAGACUGCC [C15U G17A U28G G30A] has a self-cleavage of 0.03.
